Measurements reported in the supplement of paper PMC7826260.
This is one part of the list. The data describe in vitro nicking of single-stranded DNA by Rep domains for 1 h at 37 °C with 3 µM enzyme; only the middle of the 90-letter strands is printed. Uncut reads are compared with the no-enzyme pool on a log2 scale; more negative means more cut, near 0 not cut, and no call is made. Because reads are shares of a total, they shift together; uncut strands gain when others are lost, and binding without cutting may add a little.

Test system: T1, Rep nickase domain of Muscovy duck circovirus
T1 sequence (protein, residues 1-111, tag omitted): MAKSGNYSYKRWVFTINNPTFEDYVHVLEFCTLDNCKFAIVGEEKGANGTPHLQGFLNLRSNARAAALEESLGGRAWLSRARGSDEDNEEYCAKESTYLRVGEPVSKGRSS
Assay: uncleaved DNA left, log2 of reads against the no-enzyme library (log2 ratio); higher = less cleavage (more negative = more Rep cleavage of the k-mer); sequences stand for … in CTCGTCCG…ACCGGAGA
Protocol: (§1)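 A pool of 90-nt single-stranded DNAs with seven random bases just before the constant AC of the nick site (name = the seven bases) was cut by 3 µM recombinant His6-SUMO-tagged Rep nickase domain (300 nM DNA, 50 mM HEPES pH 8.0, 50 mM NaCl, 1 mM MnCl2, 1 h, 37 °C, three replicates). Uncut DNA was amplified and sequenced.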

Row | Sequence | uncleaved DNA left (log2)
1 | TCTGGTT | 0.0312
2 | CAAGCTA | -0.0157
3 | AAGATCT | -0.0113
4 | CCACGGG | -0.00415
5 | CCTTACA | -0.000521
6 | GCCGATT | 0.176
7 | ACGTATC | 0.0346
8 | GGGATGT | -0.0382
9 | CCCAAAG | 0.103
10 | GTTTGCA | 0.0418
11 | CGGCGCC | -0.00956
12 | CCTAGGA | -0.0505
13 | GGGTCCT | -0.023
14 | GGCCTGC | 0.0881
15 | GTAAGGC | -0.0192
16 | CCTCTGC | -0.153
17 | AAAGCAA | 0.027
18 | CGCCTCT | -0.216
19 | CCGTCAG | 0.0294
20 | AACACAA | -0.0641

Row | Sequence | uncleaved DNA left (log2)
21 | AGTCCGG | -0.023
22 | AACCATG | 0.039
23 | GTAATGG | -0.0248
24 | TGGCCGG | 0.0739
25 | ATACATC | 0.0854
26 | TTTGCCC | 0.00514
27 | CTATCTT | -2.98
28 | AGTGATG | -0.0669
29 | GGACACA | -0.00147
30 | AGAAGAG | 0.0444
31 | GAGCCAC | 0.114
32 | GCAACTA | 0.0566
33 | CAAATGT | -0.0901
34 | CATGGCG | 0.111
35 | ATTCACC | 0.053
36 | GACTACC | 0.0646
37 | GCAGGTA | 0.0527
38 | GAGCCAG | 0.0228
39 | CCGATAC | -0.088
40 | GAGGTCC | -0.0684

Test system: T2, Rep nickase domain of banana bunchy top virus
T2 sequence (protein, residues 1-94, tag omitted): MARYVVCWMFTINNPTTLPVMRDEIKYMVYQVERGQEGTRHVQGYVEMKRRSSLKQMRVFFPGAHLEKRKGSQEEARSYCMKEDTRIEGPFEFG
Assay: as above
Protocol: as §1

Row | Sequence | uncleaved DNA left (log2)
41 | TCTGGTT | -0.16
42 | CAAGCTA | -0.158
43 | AAGATCT | -0.381
44 | CCACGGG | 0.108
45 | CCTTACA | 0.137
46 | GCCGATT | -0.239
47 | ACGTATC | 0.163
48 | GGGATGT | 0.0533
49 | CCCAAAG | 0.12
50 | GTTTGCA | 0.0325
51 | CGGCGCC | -0.08
52 | CCTAGGA | -0.0314
53 | GGGTCCT | 0.0361
54 | GGCCTGC | 0.034
55 | GTAAGGC | 0.00133
56 | CCTCTGC | -0.397
57 | AAAGCAA | 0.073
58 | CGCCTCT | -0.144
59 | CCGTCAG | 0.0427
60 | AACACAA | -0.0333

Row | Sequence | uncleaved DNA left (log2)
61 | AGTCCGG | -0.0267
62 | AACCATG | 0.0484
63 | GTAATGG | 0.0327
64 | TGGCCGG | 0.035
65 | ATACATC | 0.0338
66 | TTTGCCC | -0.128
67 | CTATCTT | -0.178
68 | AGTGATG | -0.00133
69 | GGACACA | 0.0504
70 | AGAAGAG | 0.172
71 | GAGCCAC | 0.0799
72 | GCAACTA | 0.0471
73 | CAAATGT | -0.149
74 | CATGGCG | -0.0153
75 | ATTCACC | -0.00872
76 | GACTACC | 0.0587
77 | GCAGGTA | -0.0282
78 | GAGCCAG | 0.101
79 | CCGATAC | -0.0948
80 | GAGGTCC | 0.0358

Test system: T3, Rep nickase domain of cabbage leaf curl virus
T3 sequence (protein, residues 1-116, tag omitted): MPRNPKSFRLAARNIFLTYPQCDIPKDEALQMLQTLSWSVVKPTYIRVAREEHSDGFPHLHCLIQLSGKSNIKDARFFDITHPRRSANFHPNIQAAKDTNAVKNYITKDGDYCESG
Assay: as above
Protocol: as §1

Row | Sequence | uncleaved DNA left (log2)
81 | TCTGGTT | 0.0633
82 | CAAGCTA | 0.0241
83 | AAGATCT | -0.179
84 | CCACGGG | -0.177
85 | CCTTACA | -0.114
86 | GCCGATT | 0.0928
87 | ACGTATC | 0.0393
88 | GGGATGT | 0.914
89 | CCCAAAG | -0.719
90 | GTTTGCA | 0.0516
91 | CGGCGCC | -0.18
92 | CCTAGGA | 0.161
93 | GGGTCCT | 0.755
94 | GGCCTGC | 0.242
95 | GTAAGGC | -0.334
96 | CCTCTGC | -0.617
97 | AAAGCAA | -0.0115
98 | CGCCTCT | -0.173
99 | CCGTCAG | -0.504
100 | AACACAA | -0.134

Row | Sequence | uncleaved DNA left (log2)
101 | AGTCCGG | 0.333
102 | AACCATG | -0.521
103 | GTAATGG | 0.25
104 | TGGCCGG | 0.488
105 | ATACATC | 0.0343
106 | TTTGCCC | -0.246
107 | CTATCTT | -1.88
108 | AGTGATG | 0.0295
109 | GGACACA | 0.82
110 | AGAAGAG | -0.466
111 | GAGCCAC | 0.227
112 | GCAACTA | 0.0262
113 | CAAATGT | -1.25
114 | CATGGCG | -0.296
115 | ATTCACC | 0.0354
116 | GACTACC | 0.142
117 | GCAGGTA | 0.103
118 | GAGCCAG | -0.123
119 | CCGATAC | -0.0463
120 | GAGGTCC | 0.352
